Test results: publication PMC4414571, “Peptides of Presenilin-1 Bind the Amyloid Precursor Protein Ectodomain and Offer a Novel and Specific Therapeutic Approach to Reduce ß-Amyloid in Alzheimer’s Disease” (PLoS ONE, 2015)
Ends that are not written are not given here. * marks the point of attachment. Biotin = O=C1N[C@H]2[C@H](CS[C@H]2CCCCC(=O)*)N1

Experiments:
Assay in all cases: BLI; Octet RED96; biotinylated peptides loaded on streptavidin biosensors, quenched with biocytin; purified APPs (0-200 nM) or control IgG in solution; Kinetics Buffer (1X PBS, 0.002% Tween-20, 0.01% BSA), 30°C; global fit to a 1:1 model; KD = koff/kon
Settings in all cases: both partners purified
[1] = target: T1, biotinylated peptide P7 (residues 66-80 of PS-1) (human)
T1 construct: Presenilin-1 (PS-1), human, residues 66-80; source: synthetic peptide (Biopeptides, San Diego), >95% by HPLC
T1 peptide: Biotin-DEEEDEELTLKYGAK

[2] = target: T2, biotinylated peptide P8 (residues 66-73 of PS-1) (human)
T2 construct: Presenilin-1 (PS-1), human, residues 66-73; also called biotinylated-P8; source: synthetic peptide (Biopeptides, San Diego), >95% by HPLC
T2 peptide: Biotin-DEEEDEEL

[3] = target: T3, biotinylated peptide P4 (residues 41-55 of PS-1) (human)
T3 construct: Presenilin-1 (PS-1), human, residues 41-55; also called biotinylated P4; source: synthetic peptide (Biopeptides, San Diego), >95% by HPLC
T3 peptide: Biotin-RRSLGHPEPLSNGRP

[4] = target: T4, biotinylated peptide P1 (residues 1-80 of PS-1) (human, biotin at the NH2-terminus)
T4 construct: Presenilin-1 (PS-1), human, residues 1-80 (NH2-terminal domain); also called PS-1 NH2-terminal domain; source: synthetic peptide (Biopeptides, San Diego), >95% by HPLC

B1: soluble APP (APPs), purified ectodomain of human APP 695 (domain or fragment)
chain: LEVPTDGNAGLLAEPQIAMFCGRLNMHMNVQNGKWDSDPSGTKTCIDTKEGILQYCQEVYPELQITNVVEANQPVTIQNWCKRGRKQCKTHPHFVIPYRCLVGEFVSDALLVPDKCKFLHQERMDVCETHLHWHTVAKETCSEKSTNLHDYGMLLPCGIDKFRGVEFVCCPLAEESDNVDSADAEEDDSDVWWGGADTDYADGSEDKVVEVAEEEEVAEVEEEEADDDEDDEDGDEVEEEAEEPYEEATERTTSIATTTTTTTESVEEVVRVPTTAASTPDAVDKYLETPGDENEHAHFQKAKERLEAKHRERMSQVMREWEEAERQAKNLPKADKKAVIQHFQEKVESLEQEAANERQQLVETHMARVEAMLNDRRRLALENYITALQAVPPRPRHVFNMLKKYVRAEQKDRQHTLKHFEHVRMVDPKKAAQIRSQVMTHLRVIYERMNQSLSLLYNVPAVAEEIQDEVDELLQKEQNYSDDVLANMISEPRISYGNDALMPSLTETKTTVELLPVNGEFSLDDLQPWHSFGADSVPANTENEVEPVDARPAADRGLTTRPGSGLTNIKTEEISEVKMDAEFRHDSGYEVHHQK
For B1, the Kd [1] was 10.1 nM, the koff [1] was 0.00105 s⁻¹ and the kon [1] was 104000 M⁻¹ s⁻¹. It also gave a Kd [2] of 3.45 nM, a koff [2] of 0.00306 s⁻¹ and a kon [2] of 886000 M⁻¹ s⁻¹. It also gave a Kd [3] of 16.1 nM, a koff [3] of 0.00134 s⁻¹ and a kon [3] of 83600 M⁻¹ s⁻¹. It also gave a Kd [4] of 14.3 nM, a koff [4] of 0.00172 s⁻¹ and a kon [4] of 120000 M⁻¹ s⁻¹.
